Drawing on paper PMC12136788, this text covers binding signal for 22 molecules.

First the molecules themselves.
T1: UNK ZnF1-6 (called full-length) (human, UniProt Q9C0B0 30-357)
T1 sequence: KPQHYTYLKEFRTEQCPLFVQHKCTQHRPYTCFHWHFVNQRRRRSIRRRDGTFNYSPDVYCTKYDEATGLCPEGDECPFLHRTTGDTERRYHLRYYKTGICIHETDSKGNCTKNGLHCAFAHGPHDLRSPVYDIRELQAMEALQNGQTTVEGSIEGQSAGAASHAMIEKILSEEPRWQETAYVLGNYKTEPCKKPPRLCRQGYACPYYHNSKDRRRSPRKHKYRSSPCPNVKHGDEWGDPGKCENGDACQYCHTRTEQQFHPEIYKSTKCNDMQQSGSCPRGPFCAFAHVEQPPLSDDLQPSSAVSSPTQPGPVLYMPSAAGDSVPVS

B1: chr6:1612588:1612689:+|3pUTR|ENSG00000054598|msi1|total|mutant (ssRNA)
RNA: GGGAGUUCUACAGUCCGACGAUCUUUAUUCAUGGACUUGUUUUAAAAUGUAAAUUGCAACACCGUAAUUUAUUUUUAAUUUGCCGUUGGAUGUCGUGGACCAAACGCCAGAAAGUGUUCCCAAAACCUGACGUUAAAUUGCCUCAACAGAGGAUUGAGCAUCA
B2: chr1:198253062:198253183:+|CDS|ENSG00000151414|unk|total|mutant (ssRNA)
RNA: GGGAGUUCUACAGUCCGACGAUCAUGGGCUAUAAUACAUCCGCCAACUUUCGAACCGAAAAGAAAAUUGGUCGCGGACAAUUCCGUGAAGUUUACCGAGCAGCCUGUCUCUUGGAUGGAGUACCAGCCGCUUUAAAAAAAGUGCAACAGAGGAUUGAGCAUCA
B3: chr9:130903550:130903651:-|3pUTR|ENSG00000130720|msi1|total|mutant (ssRNA)
RNA: GGGAGUUCUACAGUCCGACGAUCAAAUACCCGGCAUUAUGGGGACAGAGAGCAGGGGGCAGACAGCACCCCUGGAGUCCUCCCCGCAGAUCGUGGGGAACGUCAGGUCUCUCUGAGGUCAGGUCUGAGGCCAGUAUCCUCCAGCAACAGAGGAUUGAGCAUCA
B4: chr12:50222030:50222167:-|CDS|ENSG00000050405|unk|FALSE|bound_elsewhere (ssRNA)
RNA: GGGAGUUCUACAGUCCGACGAUCAUCCAGGCAUGAAGUAGAAAAAUCAGAAAUCAGUGAAAACACAGAUGCUUCGGGCAAAAUAGAGAAAUAUAAUGUUCCGCUGAACAGGCUUAAGAUGAUGUUUGAGAAAGGUGAACCAACCAACAGAGGAUUGAGCAUCA
B5: chr2:32415991:32416109:+|CDS|ENSG00000115760|unk|FALSE|unique (ssRNA)
RNA: GGGAGUUCUACAGUCCGACGAUCUGACAUUUCUACUCUUGGACACCUGGUAAUAACCACUCAGGGAGGAUAUGUAAAAAUACUAGAUCUUUCAAACUUUGAAAUUUUGGCCAAAGUGGAGCCUCCCAAAAAGGAGGGCACUGACAACAGAGGAUUGAGCAUCA
B6: chr14:103559255:103559356:-|3pUTR|ENSG00000166170|msi1|total|mutant (ssRNA)
RNA: GGGAGUUCUACAGUCCGACGAUCGCUUAACGGGGUGGGGUUUUUUUGUUUGUUCAGACAGUCUGUUCUUUUGUAAACAUUUUCCGUUGGAAAAACAGCAUCUGCAUUUUCCCCAUCCUCUACGUUUCCGAGAGGAAUCUUGUUCAACAGAGGAUUGAGCAUCA
B7: ENSG00000205339:stop:overlap|stop_codon|ENSG00000205339|stop_codon|NA|stop_codon (ssRNA)
RNA: GGGAGUUCUACAGUCCGACGAUCGGCUCGCCACAACCUCCGCCUCCCGGAUUCGGGCAAUUCUCCUGCCUCAGCCUCUUGAGUAGCUGGGAUUACAGGUGUUAUCUAUCUGAAAAAUAUGAUAACACAGUAUUGGCCUGAUCGCAACAGAGGAUUGAGCAUCA
B8: chr7:139284418:139284519:+|CDS|ENSG00000157741|unk|FALSE|bound_elsewhere (ssRNA)
RNA: GGGAGUUCUACAGUCCGACGAUCGCAAUGAAUGUACCUGCCAGCAGAGGUAGCAACCUUAACUCAAGCGGAGCUAAUAGGACUAGUCUGUCUGGGGGAACAGGAAGUGGAACACAGGGUGCUACCAAACCAUUGUCUACUCCACAACAGAGGAUUGAGCAUCA
B9: chr12:56204332:56204433:-|3pUTR|ENSG00000181852|unk|FALSE|unique (ssRNA)
RNA: GGGAGUUCUACAGUCCGACGAUCUUUUGCCUUUCUCUCACCUUAAUUCCCUUUCUUCCUUACUUUGUUACCUACCCUUAUCUUAGUGCUAACUUCUCUUUCAGGAGGAUGUCUGGGAGUAGUGUGCACUUCACAGCUGCUUUCCAACAGAGGAUUGAGCAUCA
B10: chr5:43295829:43295944:-|CDS|ENSG00000112972|unk|FALSE|unique (ssRNA)
RNA: GGGAGUUCUACAGUCCGACGAUCAAUAUCCUAGCUUUAUUCUAAAGUCAAACUUUAAAAUUUCAUGGCUUAUAUGAAUUUCAUAGUUUCCUUGGACUUCUCUUUCAGAGGGAAAUGAUAAAGAUUUUACCUUGAAUGAUUUUGCAACAGAGGAUUGAGCAUCA
B11: chr5:151662744:151662768:-|3pUTR|ENSG00000113140|msi1_unk|total|mutant (ssRNA)
RNA: GGGAGUUCUACAGUCCGACGAUCGGGGCUCCCGGGACUGCCAGGCUGUUUCAGCCAGGAAGGCCAAAAUCAAGAGUGAGAUGCCGAAAGUUGUAAAACCGAAAAAGUGGAGUUGGUGAAUCGGUUGUUCUUUCCUCACAUUUGCAACAGAGGAUUGAGCAUCA
B12: chr5:41382290:41382405:-|CDS|ENSG00000182836|unk|total|mutant (ssRNA)
RNA: GGGAGUUCUACAGUCCGACGAUCGGCCAAAAAGCUCAUGCGGAAAUGGUCCGCCACUCAGACAAUGAAUUUUACUGGCCAGCCCGGAGCUGGAAUUCGUUAUUUUGAUCUUCGAAUUUCCACCAAGCCCAGAGACCCCGACAACAACAGAGGAUUGAGCAUCA
B13: chr19:7477204:7477436:-|CDS|ENSG00000104883|control|control|control (ssRNA)
RNA: GGGAGUUCUACAGUCCGACGAUCCAACGCCGUGCACUGGCUGCCCCGGGGCGUGCUGUGGGCCGGCCGCUUCCCGCCGUGGCUAGUGGGCCUCAUGGGCACCAUCUCCUCAAUCCUCAGCAUGUACCAGGCGGCCCGGGCCGGCAACAGAGGAUUGAGCAUCA
B14: ENSG00000180660:stop:overlap|stop_codon|ENSG00000180660|stop_codon|NA|stop_codon (ssRNA)
RNA: GGGAGUUCUACAGUCCGACGAUCAACAAACGUGGCGACUGGCAAGAGAGAUCCUGACCAACCCGAAAAGUUUGGAAAAACUUUAGAGGAUGAUUUAAUCAAGAGCCGAAAUUAUUACCCUUCUCAAAGUCCUUAUUAAGUGUACAACAGAGGAUUGAGCAUCA
B15: chr7:17792983:17793084:-|3pUTR|ENSG00000071189|msi1|total|mutant (ssRNA)
RNA: GGGAGUUCUACAGUCCGACGAUCGACAUGCCUCCGGUAACUGCAGAAACCGCAAAUUAAAUGAUUAAUGAGCUUAUCCGUCACCGUAAACAUACAGAUUCCUAAUUCUAUGACAGUGUACAUAUAUGAAAAUAAAUGAUGAAACAACAGAGGAUUGAGCAUCA
B16: chr4:152882748:152882856:+|CDS|ENSG00000164144|unk|total|mutant (ssRNA)
RNA: GGGAGUUCUACAGUCCGACGAUCCAGAAACUGCUGGCUAAAAAUGGAGAGACUCUUCUUGGGGCCAUUAAUUUUUUCAUUGCCCGUGUGAACACUUUGGUGAAUAAAACCAUUGAAGAUACAUUAAUGACUGUGAAACAGUAUCAACAGAGGAUUGAGCAUCA
B17: chr2:37227669:37227839:-|CDS|ENSG00000115816|unk|total|mutant (ssRNA)
RNA: GGGAGUUCUACAGUCCGACGAUCGUUUACUUUUGCUUUUUUCGGACUUGUGUCAAAAAAAAAGAUGUUGAAUCAAAAAUGCUCCGCGCCCUUUUAACAGGUGUGAACCGGGCAUACCCUUAUUCCCAGACUGGUGAUGACAAACAACAGAGGAUUGAGCAUCA
B18: chr17:79086671:79086772:+|3pUTR|ENSG00000167280|msi1|FALSE|unique (ssRNA)
RNA: GGGAGUUCUACAGUCCGACGAUCAUAGGCUGCAAGAUGCUGAUGCCGAGAAUGAUGAUUUUCUUUCCUGCAGAUGAAACUAUUAGAAAGGGUCUUAGAUUGUGGCAGGUAGGCUUUGGAGCAGGCGCCGAGACAUUUCUGAGCCAACAGAGGAUUGAGCAUCA
B19: ENSG00000056277:stop:overlap|stop_codon|ENSG00000056277|stop_codon|NA|stop_codon (ssRNA)
RNA: GGGAGUUCUACAGUCCGACGAUCUAGAGAAUGUUUCCAAAAGUACCUCAACUUCUGAACCCACUACUGGCUGCUCAUUGAAAUAGAUUCCUGCUCCAUGGAGUUCAUGCAACCUGGUGCAAGACAAGUUGGAAGUUCCUAAGUCAACAGAGGAUUGAGCAUCA
B20: chr11:65967286:65967395:+|CDS|ENSG00000175467|unk|FALSE|unique (ssRNA)
RNA: GGGAGUUCUACAGUCCGACGAUCGACCUUUAAAAAGACCAAGCGGAGGGUGAAGAAAAUCCGCAAGAAGGAGAAGGAGGUAGUAGUGCGGGCAGAUGACUUGCUGCCUCUCGGGGACCAGACUCAGGAUGGGGACUUUGGUUCCAACAGAGGAUUGAGCAUCA
B21: chr15:73560698:73560803:-|3pUTR|ENSG00000156642|msi1_unk|FALSE|overlapping (ssRNA)
RNA: GGGAGUUCUACAGUCCGACGAUCUUUUGGGCUUGAUGUGCUGUGAAUGUUGCUUUUUUUUUUCCUUUGUUAAAAUAUUUAAAUAGAAGUGAAAAGGUCCUCUGAGGAUCAGAUCAUGCAUGCGCCAUUUUUUACUUAAUGCAGCAACAGAGGAUUGAGCAUCA
B22: ENSG00000176463:stop:overlap|stop_codon|ENSG00000176463|stop_codon|NA|stop_codon (ssRNA)
RNA: GGGAGUUCUACAGUCCGACGAUCCAAAGUUUAUCUAUAACCUGGAAGACCAUGAGUGGUGUGAAAACAUGGAGUCCGUUUUAUAGUGACUAAAGGAGGGCUGAACUCUGUAUUAGUAAUCCAAGGGUCAUUUUUUUCUUAAAACAACAGAGGAUUGAGCAUCA

This is one part of the list.

The target in the experiment is T1, UNK ZnF1-6 (called full-length). The experiment can be described thus: nsRBNS (natural sequence RNA bind-n-seq); RBNS binding buffer (assumed for nsRBNS): 25 mM Tris pH 7.5, 150 mM KCl, 3 mM MgCl2, 0.01% Triton X-100, 500 ug/ml BSA, 20 U/ml SUPERase-In, 4 C; UNK is unkempt and MSI1 is Musashi-1; names of the RNAs are library labels; protein concentration not given here; high values mean tight binding.
B1: the binding signal was 0.325 enrichment R.
In turn, B2 registered a binding signal of 0.411 enrichment R.
For the molecule B3, the binding signal is 0.72 enrichment R.
In turn, B4 displayed a binding signal of 1.1 enrichment R.
For B5, the binding signal is 0.582 enrichment R.
With B6 the figure was 0.471 enrichment R.
Molecule B7 gave a binding signal of 0.6 enrichment R.
For the molecule B8, the binding signal was 0.688 enrichment R.
B9 had a binding signal of 0.723 enrichment R.
Consider B10, for which the binding signal amounted to 0.69 enrichment R.
As to B11, the binding signal worked out at 0.749 enrichment R.
Then B12, with 0.445 enrichment R; and B13, with 0.86 enrichment R.
In turn, B14 came in with a binding signal of 0.417 enrichment R.
Regarding B15, the binding signal came to 0.426 enrichment R.
With B16 the figure was 0.385 enrichment R.
Molecule B17 registered a binding signal of 0.438 enrichment R.
Then B18, with 0.829 enrichment R; and B19, with 0.586 enrichment R.
In turn, B20 yielded a binding signal of 1.38 enrichment R.
Then B21, with 0.991 enrichment R.
With B22 the figure was 0.874 enrichment R.
